Values quoted from earlier work as cited in patent US20110201665A1, “Compositions, Methods, and Kits for Treating Influenza Viral Infections” (priority 2009, published 2011).

Experiments:
influenza A, B, and C = settings: cited from earlier work
influenza A and B virus = settings: cited from earlier work
influenza A or B viruses = settings: human, in vivo, po; cited from earlier work

For `NC(=O)c1nc(F)cnc1O` [T-705, 6-fluoro-3-hydroxy-2-pyrazinecarboxamide], the “inhibitory activity against influenza A, B, and C” value (influenza A, B, and C) is listed as “potent inhibitory activity”.
In the case of `CCC(CC)[C@H](NC(C)=O)[C@@H]1[C@H](O)[C@@H](C(=O)O)C[C@H]1NC(=N)N` [peramivir, (1S,2S,3S,4R)-3-[(1S)-1-Acetamido-2-ethyl-butyl]-4-(diaminomethylideneamino)-2-hydroxy-cyclopentane-1-carboxylic acid], the “inhibition of influenza A and B virus replication in cell culture” value (influenza A and B virus) is given as “potent inhibitor” and the “nasal wash virus titers” value (influenza A or B viruses) is given as “significantly reduced”.
